89 sequences from the supplement of paper PMC11417369 can be followed below.

± gives the standard deviation of the averaged measurements. Some of the results follow.

In the experiment the test system is PfAP2-EXP AP2 domain (GST-tagged). The experiment in a line: gcPBM binding intensity (ln(normalized median fluorescence intensity)); higher = stronger DNA binding. The method, boiled down:
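Binding intensity values are the highest Masliner-normalised natural-log median intensity among replicate spots of either probe orientation. The binding step lasted 1 h in 1× PBS with 1% milk, 0.2 mg/ml BSA, 0.5% salmon testes DNA and 0.03% Triton X-100, using GST-tagged P. falciparum DNA-binding domains expressed in E. coli on an Agilent 4 × 180k array of primer-extended double-stranded 36-bp intergenic genomic probes plus negative controls. Alexa488 anti-GST antibody and a 488 nm scan detected bound protein.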
Take “TTTTTTTTTTATAAGGCACACATGAATATTTATACA [CACACA_site1316]”: the “gcPBM binding intensity (ln)” value amounted to 8.55 ± 0.014.
Under “TATGTGAATATAATCACACACAATACGGAAAGAGAC [CACACA_site7311]” stands 9.46 ± 0.28.
The result for “TATATGTAATATTATACATGCATACATAATATATAT [TGCATGCA_site558]” reads 8.6 ± 0.26; that for “AATGTGATAATATACACACACGCATATATATATATA [CACACA_site323]”, 10.2 ± 0.2.
Consider “AAAACACTTATGGATTGTACAATAAAAATTATATTA [XGTACX_site7042]”, for which the “gcPBM binding intensity (ln)” value stood at 8.71 ± 0.45.
Under “CTGTGTAATTTAAATTGTACGTTTGAAAAAAATAAA [XGTACX_site5667]” stands 8.62 ± 0.3.
Under “TTTTAAAGAAAAAAATGTACAAAATTTTTATTTTAA [XGTACX_site1496]” stands 8.02 ± 0.28.
Under “AGGAGGATATTACACAGTACCCAGGAAATCTACGGA [XGTACX_site4878]” stands 8.38 ± 0.59; under “TATTTTATAAATACAAGTAAAATTAAATATATAATA [XGTACX_negctrl_site221]”, 8.44 ± 0.33; under “TTGTACTACAATCCTTTATTTATTTAAACCTGTATG [CACACA_negctrl_site428]”, 8.66 ± 0.19.
As for “TATATAAATAGACACACACACACATATAAATAAATA [CACACA_site7855]”, the “gcPBM binding intensity (ln)” value came to 8.82 ± 0.45.
Under TTTCAATGCATAAAAGTGCGCAATAATTTAAAGATC stands 9.11 ± 0.33; under “ACATATGTATAATAATGTACGCATTAAATATAATTA [XGTACX_site7851]”, 8.55 ± 0.37; under AAACAAATGTACAAAGTGCATATTTTTTTCAAAAGG, 8.28 ± 0.18.
Under “AAAAAAAAATAAAATAAAATAAAATAAAATAATATA [CACACA_negctrl_site1798]” stands 8.12 ± 0.44; under “ATAATATATATTAATACACACACACCGATATATATA [CACACA_site9261]”, 8.93 ± 0.54; under “GACCAATACTTTAAAAGTACAAACCTTATTTTATTT [XGTACX_site2718]”, 8.71 ± 0.23.
On to “AAAAAAAAAAAAAAATGTACATTATACACATTATAT [XGTACX_site6824]”, for which the “gcPBM binding intensity (ln)” value was 8.52 ± 0.33.
As for “TAGCCAAAATATAATTTACACACTTATTAAATAATT [CACACA_site7963]”, the “gcPBM binding intensity (ln)” value worked out at 8.11 ± 0.37.
Under “AATTATGCATTTGTCACACATATATATTACACTTGC [CACACA_site5324]” stands 8.86 ± 0.47.
Turning to “ATATAATATTGAGTTTGTACATATATATATGAAGAT [XGTACX_site4444]”, the “gcPBM binding intensity (ln)” value amounted to 8.62 ± 0.26.
On to “AAATAAATATATATATGTACATACAAATACACGGTA [XGTACX_site8510]”, for which the “gcPBM binding intensity (ln)” value was 8.94 ± 0.35.
In the case of “AAGAAAAATGTCATATGATATCATATATTTTATAAT [TGCATGCA_negctrl_site296]”, the “gcPBM binding intensity (ln)” value worked out at 8.31 ± 0.39.
The result for “ATTTTCCCTTGTTTTACACACGTGCTGATATGAGAT [CACACA_site2164]” reads 9.46 ± 0.62.
Consider “TAATTAAGCATAAATATAATTTTATATTTTATTTCC [XGTACX_negctrl_site321]”, for which the “gcPBM binding intensity (ln)” value is 7.91 ± 0.24.
Under “TGCAGTCTGGAGAAAAGTACATAGTATCTGGTAGCT [XGTACX_site2547]” stands 8.65 ± 0.42.
The result for “TAACATAGCAATGTTTCACACACAAGAAAAAATACA [CACACA_site8747]” reads 8.84 ± 0.45.
Under “ATATATGTATATATTTGTACATATAATATTTTTTAA [XGTACX_site6345]” stands 8 ± 0.25.
Consider “ATTTGTAATTTATTCAAACACACAATTTGGACCTTT [CACACA_site1062]”, for which the “gcPBM binding intensity (ln)” value came to 8.22 ± 0.4.
The result for “TATTCACATACAGAAACACACACATATATATAAATT [CACACA_site9232]” reads 8.68 ± 0.56.
As to “TTTGTGTGTGCGTGTGCATGTTGTTTTTTTCTATAA [TGCATGCA_site17]”, the “gcPBM binding intensity (ln)” value was found to be 9.18 ± 0.45.
The result for “AATATAATAACTTATTGTACGAAATTATATCACCTT [XGTACX_site7883]” reads 8.37 ± 0.34; that for “AAAAAATAAAAAAAAACACACACATACAAGCATATA [CACACA_site8451]”, 8.68 ± 0.49; that for “AGAGAGAGAAATACAAGTACATGTGAAACCAATCTA [XGTACX_site2767]”, 8.82 ± 0.38.
Under “AAAAAAAACAAATACACACGCACACCGAAAAAAAAA [CACACA_site803]” stands 8.53 ± 0.54.
The result for “AAAAAAAAAAAAATTGCACACAAAAAAAAAAAAAAA [CACACA_site8644]” reads 8.28 ± 0.41; that for “TTCAACATAATATGCACACAAAAATTATGGAACGAA [CACACA_site2111]”, 8.89 ± 0.38.
With “AAAAAAAAATACCTACGTACATATATATATTATATA [XGTACX_site3983]”, the “gcPBM binding intensity (ln)” value is 8.46 ± 0.33.
In the case of “AAAAAAAAAAAACACACACACACACCCACAAAATAT [CACACA_site1447]”, the “gcPBM binding intensity (ln)” value came to 8.7 ± 0.62.
Turning to “CAGACAATAAAGAAGTGTACACATATATCAATAAAA [XGTACX_site4515]”, the “gcPBM binding intensity (ln)” value stood at 8.92 ± 0.34.
The result for “CTTTATCTTCTCACGAAGATTGAATAAGGTATTCTT [XGTACX_negctrl_site307]” reads 8.18 ± 0.49; that for “TTAATGCACTTTATTACACACACTAGTTCATTACCT [CACACA_site2294]”, 9.255 ± 0.049.
The result for “TATATTATAATTTGAAGTACATTTTAAATTAACTAA [XGTACX_site1013]” reads 8.08 ± 0.24; that for “ATATAATAGTATATATGTACATATATTTAAATACTA [XGTACX_site1135]”, 8.45 ± 0.35; that for “TGTAAAAAATTTAACACACACATATATAAATATGTA [CACACA_site7261]”, 8.15 ± 0.36.
For the sequence “CATATACATACACATACACACATACACCCATACACA [CACACA_site8514]”, the “gcPBM binding intensity (ln)” value turned out to be 8.77 ± 0.55.
Under “AATATATATTTATGTACACACTCCAATACAGATACA [CACACA_site5481]” stands 8.79 ± 0.35; under “AGTAAATAATTATATACATGCATTTACTAATATTTA [TGCATGCA_site952]”, 8.69 ± 0.23.
Under “ATATGACGTAGTGGTGTACACACATGGTACCTTTAT [CACACA_site8436]” stands 9.1 ± 0.53; under “TTCGTTCTTTTATGCACACTCAACATATAAATTAAA [CACACA_site1209]”, 9 ± 0.35.
In the case of “TTATAATATATATGTAGTACTGTTTTTTTCTATTTT [XGTACX_site7749]”, the “gcPBM binding intensity (ln)” value was determined as 8.59 ± 0.52.
With “TATTATTTTAAAAATGCATGTTCATATGAAATAATA [TGCATGCA_site969]”, the “gcPBM binding intensity (ln)” value was found to be 8.88 ± 0.45.
On to “TGTACAAATATGTACACACACACATATATATATATA [CACACA_site584]”, for which the “gcPBM binding intensity (ln)” value came out at 9.95 ± 0.31.
Under “ATACTATTATATATATGTACATATATATGATGCTCT [XGTACX_site1771]” stands 8.73 ± 0.4.
Under “AAGGAGCCTATGAACACACACATGTACATATATTAA [CACACA_site4084]” stands 8.58 ± 0.49.
Under “TTTGTATTAAAAAAAAAAAAAAAAAAAATGAATAAA [TGCATGCA_negctrl_site292]” stands 8.14 ± 0.47.
Regarding “TTTTTTTTTTTTTTTTTTTTTTTTCATTTGATATTA [TGCATGCA_negctrl_site112]”, the “gcPBM binding intensity (ln)” value turned out to be 7.89 ± 0.58.
Under “ATAACGGAAAAAAAAAGTACATGATATAAACATGAA [XGTACX_site8428]” stands 8.6 ± 0.51.
For “AAAAATAAGATATATACACACATATAAATATAAATA [CACACA_site7396]”, the “gcPBM binding intensity (ln)” value came to 8.51 ± 0.38.
The result for “TTATTTATTCTATGTGCATGTTATTTTTTTTTTTCG [TGCATGCA_site262]” reads 9.03 ± 0.35.
Under “ATAAAATTATCTACATGTACTCATATATATTTGTTT [XGTACX_site5911]” stands 9.03 ± 0.45; under “AGAGAGAAAGTTATAACATGCAACAATTTTTAGAAG [TGCATGCA_site1]”, 8.94 ± 0.43.
Under “TATATATATATATGTGGTACATAAAATTATTATTTT [XGTACX_site4554]” stands 10.1 ± 0.43; under “CTTTAAACCCTGAACACACACAAATACACCCAAAAA [CACACA_site4297]”, 8.81 ± 0.42.
With “TTTTTATGTGTATATTATTACATTTACATCTTTAAC [CACACA_negctrl_site1676]”, the “gcPBM binding intensity (ln)” value was found to be 8.54 ± 0.43.
Under “ACAAGACAACAAGGAAGTACTCATAAATATATTTGG [XGTACX_site1423]” stands 8.83 ± 0.44; under “CTCACATATATATATAGTACAATTTTTTTTTTTTTT [XGTACX_site5999]”, 8.47 ± 0.42.
Under “ATGTAGAATTGTAAATGTACATGAAACACATATTCA [XGTACX_site3436]” stands 8.79 ± 0.34.
Under “TATATATATATATTATGTACATATAAATATATTTTT [XGTACX_site1509]” stands 9.71 ± 0.28; under “AAGAAAAATACTACGTGTACCAAACTTCCTACCAAC [XGTACX_site1426]”, 8.74 ± 0.52.
With “AATATATATATGTGTACACATCCAAAATAGGCATAC [CACACA_site5705]”, the “gcPBM binding intensity (ln)” value was determined as 9.08 ± 0.4.
The result for “TGTAAATATAAAAGATAATGATAAAAGGGACATTTT [CACACA_negctrl_site661]” reads 8.75 ± 0.37.
The result for “ATCTATATTATAATAACACACATATATTATAGTATA [CACACA_site6330]” reads 8.34 ± 0.33; that for “ATATATATATAAATATGTACATATTTATATATGAAT [XGTACX_site3220]”, 9.5 ± 0.18.
Consider “TTTTTTAAAGTTTAAAGTACATATAAAAATATATAA [XGTACX_site5267]”, for which the “gcPBM binding intensity (ln)” value came out at 8.19 ± 0.41.
The result for “TATATATATATATTATGTACATATATAAATTAACAT [XGTACX_site3368]” reads 9.82 ± 0.25.
Regarding CTTAAAATATATTTAGTGCATATACTAATATATTAT, the “gcPBM binding intensity (ln)” value stood at 8.41 ± 0.11.
For the sequence “AATATAGGAATATGCACACATATATACATACATACA [CACACA_site1521]”, the “gcPBM binding intensity (ln)” value worked out at 8.93 ± 0.15.
The result for “TATGAAAAAAAAAAAAAAAAAAAAAAAAAAAAAAAA [XGTACX_negctrl_site587]” reads 7.93 ± 0.61; that for “TATATATGGATATATACACACAACGGTTATAAATAT [CACACA_site6655]”, 8.46 ± 0.46; that for “AAAAAAATAAAATATATATATATATATATATATATA [GTGCAC_negctrl_site706]”, 10.1 ± 0.39.
Turning to “TCTTTTATATATAATAATTATATATAACATTCAAAC [GTGCAC_negctrl_site112]”, the “gcPBM binding intensity (ln)” value was 8.45 ± 0.4.
Regarding “GTTAATCACCATGTGGTGCATATAAGGGCATATTAT [GTGCAC_site9748]”, the “gcPBM binding intensity (ln)” value came out at 8.95 ± 0.11.
Under “AATTAATAAAAAAGGTGTACAGTAAATGCAATAATC [XGTACX_site7956]” stands 9.42 ± 0.47.
The result for “CCTTATACGATATTATGTACGCATATGTGCATTTTT [XGTACX_site1570]” reads 8.69 ± 0.38; that for “ATAAATTCATACATTTGTACACAAAAAAAAAAAAAA [XGTACX_site2435]”, 8.48 ± 0.56.
Under “TAATGGTATAAAAAATGTACATGTTTTTTTACAATT [XGTACX_site4285]” stands 8.45 ± 0.35; under ATTATTTGATTAAAGGTGCAAGGATAATAATAAAAC, 9.04 ± 0.3; under “ATATATATATATTTATGTACATATTATTTATTCTTT [XGTACX_site6567]”, 9.94 ± 0.17.
